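Five compound concentrations were applied to cells in 96-well plates for 48 hours; endpoints were derived by simple linear interpolation of the resulting dose-response curve. Here, GI50 denotes the concentration required for 50% inhibition of growth. Definition used: TGI = concentration required for complete inhibition of growth.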

The test system of the experiment is NCI-H322M lung. Kind of experiment: NCI anticancer screen, dose series, 48 h.

In the case of `Cc1ccc(-c2nc3ccc(C(=O)N=Nc4c(O)[nH]c5ccc(Cl)cc45)cc3[nH]2)cc1`, the GI50 is 16.2 µM and the TGI is greater than 100 µM.

Regarding `Cn1cc(-c2cc(N)n3nc(-c4c[nH]c5ccc(Br)cc45)cc3n2)c2cc(Br)cnc21`, the GI50 was 2.21 µM and the TGI was 7.43 µM.

In the case of `Cc1ccc([N+](=O)[O-])c(C(=O)Nc2ccc(-c3ccc4c(c3)NC(=O)/C4=C\c3ccc[nH]3)cc2)c1`, the GI50 is greater than 100 µM and the TGI was greater than 100 µM.

In the case of `O=C(/C=C/c1ccc(F)cc1)c1nc2ccccc2n1Cc1ccc(F)cc1`, the GI50 is 3.23 µM and the TGI is 31.4 µM.

`CC(C)C[C@H](NC(=O)CNC(=O)C[C@H]1O[C@@H]2OC3(C)CC[C@H]4[C@H](C)CC[C@@H]([C@H]1C)[C@@]24OO3)B(O)O`: the GI50 was 14.6 µM and the TGI was greater than 65 µM.
